Values joined by “and” are separate entries in the source; they are usually repeats but may differ in a detail not shown here. Identical values can stand only once. Further values from the same series stand in other lists. Inconclusive results and toxic doses are left out.
System: P388 leukemia ip, CD2F1 mice, survival T/C
Experiment: NCI In Vivo Anticancer Drug Screen. Data for tumor model P388 Leukemia (intraperitoneal) in CD2F1 (CDF1) mice
Conditions: endpoint: median survival time, higher = longer survival
Description: The antitumor activity of compounds was measured in mice bearing transplantable tumors. Survival or tumor size were measured and the results are expressed as the measurement made in the treated group (T) divided by the measurement made in the vehicle treated control group (C). The tumor model used in this assay is P388 Leukemia (intraperitoneal) in CD2F1 (CDF1) mice

## O=C1c2ccccc2C(=O)c2c(NCCNCCO)ccc(NCCNCCO)c21
dose: 0.5 mg/kg/injection, schedule: Q01DX009 (ip), vehicle: water
  T/C: 155 % of control and 161 % of control
dose: 1.0 mg/kg/injection, schedule: Q01DX009 (ip), vehicle: Klucel (hydroxypropylcellulose) (HPC)
  T/C: 167 % of control
dose: 1.0 mg/kg/injection, schedule: Q01DX009 (ip), vehicle: saline with Tween-80
  T/C: 170 % of control
dose: 1.0 mg/kg/injection, schedule: Q01DX009 (ip), vehicle: water
  T/C: 154 % of control and 180 % of control
dose: 1.25 mg/kg/injection, schedule: Q01DX005 (ip), vehicle: other
  T/C: 191 % of control
dose: 1.25 mg/kg/injection, schedule: Q01DX009 (ip), vehicle: distilled water + Tween-80
  T/C: 189 % of control
dose: 2.0 mg/kg/injection, schedule: Q01DX009 (ip), vehicle: Klucel (hydroxypropylcellulose) (HPC)
  T/C: 169 % of control and 174 % of control and 191 % of control
dose: 2.0 mg/kg/injection, schedule: Q01DX009 (ip), vehicle: acid diluted with saline
  T/C: 215 % of control and 233 % of control
dose: 2.0 mg/kg/injection, schedule: Q01DX009 (ip), vehicle: saline with Tween-80
  T/C: 228 % of control
dose: 2.0 mg/kg/injection, schedule: Q01DX009 (ip), vehicle: water
  T/C: 162 % of control and 200 % of control
dose: 2.5 mg/kg/injection, schedule: Q01DX005 (ip), vehicle: other
  T/C: 198 % of control
dose: 2.5 mg/kg/injection, schedule: Q01DX009 (ip), vehicle: distilled water + Tween-80
  T/C: 222 % of control
dose: 2.5 mg/kg/injection, schedule: Q01DX009 (ip), vehicle: saline
  T/C: 181 % of control
dose: 2.5 mg/kg/injection, schedule: Q01DX009 (ip), vehicle: water
  T/C: 187 % of control
dose: 3.12 mg/kg/injection, schedule: Q01DX009 (ip), vehicle: saline
  T/C: 169 % of control
dose: 4.0 mg/kg/injection, schedule: Q01DX009 (ip), vehicle: Klucel (hydroxypropylcellulose) (HPC)
  T/C: 181 % of control and 193 % of control and 194 % of control
dose: 4.0 mg/kg/injection, schedule: Q01DX009 (ip), vehicle: acid diluted with saline
  T/C: 242 % of control and 248 % of control
dose: 4.0 mg/kg/injection, schedule: Q01DX009 (ip), vehicle: other
  T/C: 159 % of control
dose: 4.0 mg/kg/injection, schedule: Q01DX009 (ip), vehicle: water
  T/C: 207 % of control and 245 % of control
dose: 4.0 mg/kg/injection, schedule: Q04DX003 (ip), vehicle: Klucel (hydroxypropylcellulose) (HPC)
  T/C: 155 % of control
dose: 5.0 mg/kg/injection, schedule: Q01DX005 (ip), vehicle: other
  T/C: 260 % of control
dose: 5.0 mg/kg/injection, schedule: Q01DX009 (ip), vehicle: distilled water + Tween-80
  T/C: 275 % of control
dose: 5.0 mg/kg/injection, schedule: Q01DX009 (ip), vehicle: saline
  T/C: 189 % of control
dose: 5.0 mg/kg/injection, schedule: Q01DX009 (ip), vehicle: water
  T/C: 252 % of control
dose: 6.25 mg/kg/injection, schedule: Q01DX009 (ip), vehicle: saline
  T/C: 210 % of control and 252 % of control
dose: 8.0 mg/kg/injection, schedule: Q01DX009 (ip), vehicle: Klucel (hydroxypropylcellulose) (HPC)
  T/C: 174 % of control and 179 % of control and 246 % of control
dose: 8.0 mg/kg/injection, schedule: Q01DX009 (ip), vehicle: acid diluted with saline
  T/C: 186 % of control and 379 % of control
dose: 8.0 mg/kg/injection, schedule: Q01DX009 (ip), vehicle: other
  T/C: 150 % of control
dose: 8.0 mg/kg/injection, schedule: Q01DX009 (ip), vehicle: saline
  T/C: 336 % of control
dose: 8.0 mg/kg/injection, schedule: Q01DX009 (ip), vehicle: water
  T/C: 261 % of control and 272 % of control
dose: 8.0 mg/kg/injection, schedule: Q04DX003 (ip), vehicle: Klucel (hydroxypropylcellulose) (HPC)
  T/C: 163 % of control
dose: 10.0 mg/kg/injection, schedule: Q01DX005 (ip), vehicle: other
  T/C: 260 % of control
dose: 10.0 mg/kg/injection, schedule: Q01DX009 (ip), vehicle: distilled water + Tween-80
  T/C: 275 % of control
dose: 10.0 mg/kg/injection, schedule: Q01DX009 (ip), vehicle: saline
  T/C: 258 % of control
dose: 10.0 mg/kg/injection, schedule: Q01DX009 (ip), vehicle: water
  T/C: 291 % of control
dose: 10.8 mg/kg/injection, schedule: Q01DX009 (ip), vehicle: saline
  T/C: 297 % of control
dose: 12.5 mg/kg/injection, schedule: Q01DX009 (ip), vehicle: Klucel (hydroxypropylcellulose) (HPC)
  T/C: 267 % of control and 268 % of control
dose: 12.5 mg/kg/injection, schedule: Q01DX009 (ip), vehicle: saline
  T/C: 164 % of control and 231 % of control and 240 % of control
dose: 13.0 mg/kg/injection, schedule: Q01DX005 (ip), vehicle: saline
  T/C: 560 % of control
dose: 16.0 mg/kg/injection, schedule: Q01DX009 (ip), vehicle: Klucel (hydroxypropylcellulose) (HPC)
  T/C: 186 % of control and 460 % of control
dose: 16.0 mg/kg/injection, schedule: Q01DX009 (ip), vehicle: acid diluted with saline
  T/C: 158 % of control and 416 % of control
dose: 16.0 mg/kg/injection, schedule: Q01DX009 (ip), vehicle: other
  T/C: 111 % of control
dose: 16.0 mg/kg/injection, schedule: Q01DX009 (ip), vehicle: water
  T/C: 272 % of control and 423 % of control
dose: 16.0 mg/kg/injection, schedule: Q04DX003 (ip), vehicle: Klucel (hydroxypropylcellulose) (HPC)
  T/C: 206 % of control
dose: 16.0 mg/kg/injection, schedule: Q04DX003 (ip), vehicle: saline with Tween-80
  T/C: 234 % of control
dose: 18.0 mg/kg/injection, schedule: Q01DX009 (ip), vehicle: saline
  T/C: 315 % of control and 409 % of control
dose: 20.0 mg/kg/injection, schedule: Q01DX005 (ip), vehicle: other
  T/C: 260 % of control
dose: 20.0 mg/kg/injection, schedule: Q01DX005 (ip), vehicle: saline
  T/C: 401 % of control
dose: 20.0 mg/kg/injection, schedule: Q01DX009 (ip), vehicle: saline
  T/C: 86 % of control
dose: 20.0 mg/kg/injection, schedule: Q01DX009 (ip), vehicle: water
  T/C: 262 % of control
dose: 20.0 mg/kg/injection, schedule: Q04DX003 (ip), vehicle: saline
  T/C: 285 % of control
dose: 21.6 mg/kg/injection, schedule: Q01DX005 (ip), vehicle: saline
  T/C: 560 % of control
dose: 21.6 mg/kg/injection, schedule: Q01DX005 (iv), vehicle: saline
  T/C: 87 % of control
dose: 25.0 mg/kg/injection, schedule: Q01DX005 (ip), vehicle: saline
  T/C: 330 % of control
dose: 25.0 mg/kg/injection, schedule: Q01DX009 (ip), vehicle: Klucel (hydroxypropylcellulose) (HPC)
  T/C: 269 % of control and 189 % of control
dose: 25.0 mg/kg/injection, schedule: Q01DX009 (ip), vehicle: saline
  T/C: 105 % of control and 123 % of control and 297 % of control
dose: 28.8 mg/kg/injection, schedule: Q04DX003 (ip), vehicle: saline
  T/C: 446 % of control
dose: 32.0 mg/kg/injection, schedule: Q01DX009 (ip), vehicle: Klucel (hydroxypropylcellulose) (HPC)
  T/C: 229 % of control and 86 % of control and 94 % of control
dose: 32.0 mg/kg/injection, schedule: Q01DX009 (ip), vehicle: saline
  T/C: 91 % of control
dose: 32.0 mg/kg/injection, schedule: Q01DX009 (ip), vehicle: water
  T/C: 90 % of control
dose: 32.0 mg/kg/injection, schedule: Q04DX003 (ip), vehicle: Klucel (hydroxypropylcellulose) (HPC)
  T/C: 189 % of control
dose: 32.0 mg/kg/injection, schedule: Q04DX003 (ip), vehicle: saline with Tween-80
  T/C: 267 % of control
dose: 50.0 mg/kg/injection, schedule: Q01DX009 (ip), vehicle: Klucel (hydroxypropylcellulose) (HPC)
  T/C: 90 % of control
dose: 64.0 mg/kg/injection, schedule: Q04DX003 (ip), vehicle: Klucel (hydroxypropylcellulose) (HPC)
  T/C: 232 % of control
dose: 256.0 mg/kg/injection, schedule: Q04DX003 (ip), vehicle: saline
  T/C: 92 % of control and 98 % of control
dose: 400.0 mg/kg/injection, schedule: Q04DX003 (ip), vehicle: Klucel (hydroxypropylcellulose) (HPC)
  T/C: 92 % of control
